# In PubChem BioAssay AID1745853 (National Center for Advancing Translational Sciences (NCATS), 2022):
# This is one part of the list. Shown are side measurements of this screen, not its main read-out; they come without a call.
# What was measured:
# Experiment in all cases: Primary Screen for Target Class Profiling of Small Molecule Inhibitors of Methyltransferases
# [1] = biological target: Glycine N-methyltransferase (Homo sapiens) (UniProt Q14749); conditions: purified enzyme, MTase-Glo SAH luminescence; measured here: GNMT inhibition; at 40 µM; stronger effect = lower value
# In short: (§1)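 Each enzyme was reacted with SAM and its substrate, with compounds tested once at 40 uM; SAH formed was read by MTase-Glo luminescence.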
# [2] = biological target: Guanidinoacetate N-methyltransferase (Homo sapiens) (UniProt Q14353); conditions: purified enzyme, MTase-Glo SAH luminescence; measured here: GAMT inhibition; at 40 µM; stronger effect = lower value
# In short: as §1
# [3] = biological target: Histamine N-methyltransferase (Homo sapiens) (UniProt P50135); conditions: purified enzyme, MTase-Glo SAH luminescence; measured here: HNMT inhibition; at 40 µM; stronger effect = lower value
# In short: as §1
# [4] = biological target: Nicotinamide N-methyltransferase (Homo sapiens) (UniProt P40261); conditions: purified enzyme, MTase-Glo SAH luminescence; measured here: NNMT inhibition; at 40 µM; stronger effect = lower value
# In short: as §1
# [5] = biological target: Phenylethanolamine N-methyltransferase (Homo sapiens) (UniProt P11086); conditions: purified enzyme, MTase-Glo SAH luminescence; measured here: PNMT inhibition; at 40 µM; stronger effect = lower value
# In short: as §1
# On the % scale 0 is the no-effect control and ±100 the full control effect.
SMILES,"activity change, negative = inhibition [1] [%]","activity change, negative = inhibition [2] [%]","activity change, negative = inhibition [3] [%]","activity change, negative = inhibition [4] [%]","activity change, negative = inhibition [5] [%]"
C=C1CCC2C(C)(C)CC(O)CC2(C)C1CCC(C)CC(=O)O (stereo not drawn),-10.2,-7.43,4.67,-22.1,-11.5
COc1cc2c(Oc3ccc4[nH]c(C)cc4c3F)ncnc2cc1OCCCN1CCCC1,-5.47,5.02,-38.1,-19.1,-3.74
C=CC(C)(O)CC/C=C(/C)C(=O)OC1C(OC2OCC(OC3OC(CO)C(O)C(O)C3O)C(OC3OCC(O)C(OC4OC(C)C(O)C(O)C4O)C3O)C2O)COC(OC(=O)C23CCC(C)(C)CC2C2=CCC4C5(C)CCC(OC6OC(CO)C(OC7OC(CO)C(O)C(OC8OCC(O)C(O)C8O)C7O)C(O)C6O)C(C)(C)C5CCC4(C)C2(C)CC3O)C1O (stereo not drawn),0,19.3,6.43,6.42,6.44
CCCc1nc(C(=O)N2CC[C@H](CO)[C@H](O)C2)cs1,-3.07,-8.34,-1.68,-11.2,-6.46
Cc1ccc2[nH]c(=O)c(C3=NN(C(=O)CCC(=O)O)C(c4ccc(Br)cc4)C3)c(-c3ccccc3)c2c1 (stereo not drawn),-38.5,15.6,1.94,-24.1,2.72
COC(=O)c1ncn2c1C(=O)N(Cc1ccc3c(c1)OCO3)C(C)(C(=O)NC1CCCCC1)C2 (stereo not drawn),2.2,0,3.08,-2.11,3.94
Cc1cc(C(=O)NCC2(COc3ccc(S(C)(=O)=O)cc3)C[C@@H](O)[C@@H](O)C2)n(C)n1 (stereo partly drawn),-3.07,3.46,0.367,-2.56,14.5
COc1ccc(N2CCN(C(=O)CCCc3nnc4n5nc(C)nc5c5ccccc5n34)CC2)cc1,-19.6,0.093,10.7,15.8,3.58
C/C=C(\C)C(=O)O[C@H]1[C@H](O)[C@]2(COC(C)=O)[C@H](O)C[C@]3(C)C(=CCC4[C@@]5(C)CC[C@H](O[C@@H]6O[C@H](C(=O)O)[C@@H](O[C@@H]7O[C@H](CO)[C@@H](O)[C@H](O)[C@H]7O)[C@H](O)[C@H]6O[C@@H]6O[C@H](CO)[C@@H](O)[C@H](O)[C@H]6O)[C@](C)(CO)C5CC[C@]43C)[C@@H]2CC1(C)C (stereo partly drawn),-5.97,12.9,-1.45,1.02,9.64
O=C(OCc1ccccc1)N1CCC2(CC1)C(=O)NN=C2C1CC1,-11.3,-7.64,-1.74,-21.9,-11.9
CCOc1ccc(N2C(=O)CSc3c(c4ccccc4n3C)C2C(=O)NCc2ccccc2OC)cc1 (stereo not drawn),11.7,0,2.86,8.7,11.4
C=C1C(=O)OC2C1C(O)CC1(C)C(O)CCC(C=O)C21 (stereo not drawn),3.31,1.49,11.3,-7.9,4.05
C=C1C[C@]23C[C@H]1CC[C@H]2[C@]1(C)CC[C@H](O)[C@@](C)(C(=O)O)[C@H]1[C@@H]3C(=O)O,0,-8.78,5.66,-23.3,-10
c1ccc([C@H]2CN3CCSC3=N2)cc1,2.56,10.5,-7.79,-2.28,6.86
CCCCN1C(=O)c2cc(C(=O)Nc3ccc(Cl)cc3C)nn2CC1(C)C(=O)NC1CCCC1 (stereo not drawn),0.323,1.49,-13.4,-0.6,-0.716
COc1ccc2cc3n(c2c1)CC(C)(C(=O)NC1CCCCCCC1)N(CCN1CCOCC1)C3=O (stereo not drawn),1.7,-0.268,1.28,-0.768,-4.85
COc1ccc(NC(=O)Cn2nc3n(CCc4ccccc4)c(=O)c4ccccc4n3c2=O)cc1OC,3.99,4.83,7,5.38,4.5
COc1cc(NC(=O)CSc2nnc3n(CC(C)C)c(=O)c4cc(F)ccc4n23)cc(OC)c1,4.31,1.92,9.36,5.87,1.21
CC1=C2C(=O)C=C(CO[C@@H]3O[C@H](CO)[C@@H](O)[C@H](O)[C@H]3O)[C@@H]2[C@H]2OC(=O)[C@H](C)[C@@H]2[C@@H](O)C1,3.66,10.6,6.04,-2.99,8.59
O=C(NCCCCCCCCNC(=O)C(Cl)Cl)C(Cl)Cl,-2.75,-0.674,2.41,-9.54,-2.49
COc1ccc(N2CCN(S(=O)(=O)c3ccc4c(c3)n(C)c(=O)n4C)CC2)cc1,8.44,-4,-2.91,2.84,-4.54
COc1ccc2c(c1)c(NC(C)=O)c1n2CC(C)(C(=O)NC2CCCC2)N(Cc2ccccn2)C1=O (stereo not drawn),5.59,0,3.83,7.11,2.96
O=C(CCc1nnn2c1CN(C(=O)C1CCCC1)CC2)N1CCOCC1,-2.68,-5.04,-1.18,-5.44,4.32
CCN(Cc1ccccc1)C(=O)CCn1ccc2cc(S(=O)(=O)N3CCCCC3)ccc21,4.41,0,1.35,2.46,-0.109
O=S(=O)(NCCn1c(-c2ccccc2)nc2ccccc21)c1ccc(F)c(F)c1,-6.95,-0.775,5.36,-7.89,12.5
CCCN1C(=O)c2cc(C(=O)NCCc3ccc(Cl)cc3)nn2CC1(C)C(=O)NC1CCCC1 (stereo not drawn),4.99,0.406,-4.73,1.68,1.76
CCCN1C(=O)c2c(C(=O)NCCCN3CCOCC3)ncn2CC1(C)C(=O)NCc1ccc(C)cc1 (stereo not drawn),-1.02,3.65,3.06,0.161,-1.03
Cc1noc(C)c1-c1cc2c(cc(C)n2C)c(-c2ccnn2C)n1,-13.4,-10.7,-19.3,-31,-13.9

SMILES,"activity change, negative = inhibition [1] [%]","activity change, negative = inhibition [2] [%]","activity change, negative = inhibition [3] [%]","activity change, negative = inhibition [4] [%]","activity change, negative = inhibition [5] [%]"
CCC(C)N1Cc2cc(NC(=O)Cc3cccc(OC)c3)ccc2OCC1=O (stereo not drawn),-6.09,-1.23,-4.2,-12.3,8.86
CCn1cc(S(=O)(=O)NCC2Cn3cccc3C(=O)N2C)cn1 (stereo not drawn),-4.17,-3,-1.56,-4.33,-7.88
Cc1nc(N2CCCCCC2)ncc1C(=O)O,-12,-10.4,-6.03,-17.8,-14.4
CC(C)/C=C1/NC(=O)C(C(C)C)n2c1nc1c(O)cccc1c2=O (stereo not drawn),0,-4.65,-5.96,-24.8,-3.29
CCN(CC)CC1CCN(c2ncc3ncnc(Nc4ccc(F)c(Cl)c4)c3n2)CC1,–,-19.4,–,-30.7,-40.4
COc1cc(C(C)=O)ccc1O[C@@H]1O[C@H](CO)[C@@H](O)[C@H](O)[C@H]1O,-4.79,-9.97,2.2,-20.1,-7.08
Cc1ccc(C)c(C(=O)Cn2nc3n(C)c(=O)c4ccc(C(=O)NC5CCCC5)cc4n3c2=O)c1,8,1.54,2.54,5.77,7.25
CCCCN1C(=O)c2cc(C(=O)Nc3cc(C)ccc3OC)nn2CC1(C)C(=O)NC1CCCC1 (stereo not drawn),3.91,0.759,-3.83,4.75,4.86
Cc1cc(Cl)ccc1N1C(=O)c2cc(C(C)(C)C)nn2CC1(C)C(=O)NCCC(C)C (stereo not drawn),5.22,2.45,4.05,5.77,-2.61
Cc1ccc(NC(=O)Cn2c(=O)oc3cc(S(=O)(=O)N4CCCC4)ccc32)c(Br)c1,14.6,0,13.1,2.4,6.47
Cc1noc2c(-c3cnn(C)c3)cc(-c3cccnc3)nc12,-14.1,-3.18,-8.5,-19,-4.3
CC(CNC(=O)CCn1ccc2cc(S(=O)(=O)N3CCCC3)ccc21)c1ccccc1 (stereo not drawn),3.6,1.84,7.69,2.63,4.27
Cc1ccc([N+](=O)[O-])cc1S(=O)(=O)N(C)C,-8.22,1.75,-1.47,-10.7,3.14
CCc1noc([C@@H]2CC(F)(F)CN2C(=O)c2cocn2)n1,-3.01,-3.13,-1.04,-7.92,-6.56
CCCn1c(=O)c2ccc(C(=O)NC(C)CC)cc2n2c(=O)n(CC(=O)Nc3cc(F)ccc3F)nc12 (stereo not drawn),-3.8,-1.5,-2.68,-3.22,-2.42
CCCn1c(=O)c2ccc(Cl)cc2n2c(=O)n(CC(=O)NCc3ccccc3Cl)nc12,-2.98,2.27,0.423,-5.33,-5.04
CC1(C(=O)NCc2ccccc2)Cc2ccccc2C(=O)N1Cc1cccc(C(F)(F)F)c1 (stereo not drawn),8.61,0,4.99,2.32,1.8
CCc1cc2c(cc3n2CC(C)(C(=O)NC2CCC(C)CC2)N(Cc2cccc(Cl)c2)C3=O)s1 (stereo not drawn),-6.18,2.9,-5.27,-3.92,-2.69
COc1ccc(-c2cc3n(n2)CC(C)(C(=O)NCc2ccccc2)N(Cc2ccc(C)cc2)C3=O)cc1 (stereo not drawn),7.5,0,6.27,14.6,3.15
O=C(CCn1ccn2nc3c(c2c1=O)CCCC3)N1CCSCC1,-1.05,1.44,1.18,-15.6,16.6
COc1cccc(CN2C(=O)c3cc(-c4ccccc4)nn3CC2(C)C(=O)NCc2ccccc2)c1 (stereo not drawn),9.35,1.39,9.26,5.96,2.24
O=C1C(N2CCN(S(=O)(=O)c3cc(F)ccc3F)CC2)CCN1Cc1cccnc1 (stereo not drawn),-3.15,-1.92,-0.078,-2.53,-2.41
O=C(O[C@@H]1O[C@H](CO)[C@@H](O)[C@H](O)[C@H]1O)c1ccccc1,4.21,2.16,13.8,-6.24,4.96
O=C(C1CCCCC1)N1CCC(OC2CCN(Cc3cccnc3)CC2)CC1,-2.4,-2.49,0.304,1.73,2
COC(=O)C1=CO[C@@H](O[C@@H]2O[C@H](CO)[C@@H](O)[C@H](O)[C@H]2O)[C@H]2[C@@H]1[C@H](O)C[C@]2(C)O,0.239,-3.6,6.66,-12.5,2.77
O=C1COc2ccc(S(=O)(=O)N3CCCn4nc(CO)cc4C3)cc2N1,-2.56,3.16,0.909,-1.07,-0.078
CN(C)N(C)C(=O)[C@@]1(Cc2ccccc2)CCCN(C(=O)[C@@H](Cc2c[nH]c3ccccc23)NC(=O)C(C)(C)N)C1,-2.83,8.33,6.2,-10.6,3.23
